In the supplement of paper PMC9446081:
The whole screen tested about 39,000 compounds, of which about 220 (0.56%) showed activity. The list shows a part of the results.

system: Escherichia coli K-12 BW25113; experiment: relative growth (OD600 normalised to plate interquartile mean) (fraction); higher = less growth inhibition, active = 0.2 or less; conditions: 50 µM; LB; incubation time: overnight (16-24 h)
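Further: static incubation at 37 °C against the wild-type strain, values averaged over two biological replicates.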

Row | Compound | relative growth
1 | COc1ccc(S(=O)(=O)N(C)C[C@@H]2OCCCC[C@@H](C)Oc3ccc(NC(=O)Nc4c(C)noc4C)cc3C(=O)N([C@H](C)CO)C[C@H]2C)cc1 | inactive: 1.01
2 | CN1CC(=O)N(c2cnn(C)c2)C[C@]12CCN(C(=O)c1cnccn1)C2 | inactive: 1
3 | COCC(=O)N1C[C@@H](C)[C@@H](OC)CN(C)C(=O)c2ccc(NC(=O)Nc3cccc(F)c3)cc2OC[C@@H]1C | inactive: 0.997
4 | COc1ccc(CN(C)C[C@H]2OCCCC[C@H](C)Oc3ccc(NC(=O)Nc4ccc5c(c4)OCO5)cc3C(=O)N([C@@H](C)CO)C[C@@H]2C)cc1 | inactive: 0.999
5 | Cc1noc(C)c1NC(=O)Nc1ccc2c(c1)C(=O)N([C@@H](C)CO)C[C@@H](C)[C@@H](CN(C)S(=O)(=O)c1ccccc1)OCCCC[C@@H](C)O2 | inactive: 1
6 | C[C@@H]1CN([C@H](C)CO)C(=O)c2cc(NS(=O)(=O)c3ccc(Cl)cc3)ccc2O[C@H]1CN(C)S(C)(=O)=O | inactive: 1
7 | C[C@H]1CN([C@@H](C)CO)C(=O)c2cccc(NS(=O)(=O)c3cccs3)c2O[C@@H]1CN(C)Cc1ccc(Cl)c(Cl)c1 | inactive: 1.02
8 | C[C@H]1CCCCO[C@H](CN(C)S(=O)(=O)c2cccs2)[C@@H](C)CN([C@@H](C)CO)C(=O)c2cc(NC(=O)C3CCCCC3)ccc2O1 | inactive: 0.995
9 | COc1ccc(S(=O)(=O)N(C)C[C@H]2Oc3ccc(NC(=O)C4CC4)cc3CC(=O)N([C@H](C)CO)C[C@@H]2C)cc1 | inactive: 0.993
10 | COc1ccc(CN(C)C[C@H]2OCCCC[C@@H](C)Oc3ccc(NC(=O)NC(C)C)cc3C(=O)N([C@@H](C)CO)C[C@@H]2C)cc1 | inactive: 1.02
11 | C[C@H](O)C#Cc1ccc2c(c1)O[C@@H](CN(C)C(=O)C1CCCCC1)[C@@H](C)CN([C@H](C)CO)S2(=O)=O | inactive: 0.999
12 | CN(C)CCCNC(=O)C[C@@H]1CC[C@H]2[C@@H](COc3ccc(NC(=O)c4cccc(F)c4)cc3C(=O)N2C)O1 | inactive: 1
13 | COCC(=O)Nc1ccc2c(c1)OC[C@H](C)N(C(=O)c1ccccc1F)C[C@@H](C)[C@H](OC)CN(C)C2=O | inactive: 1.01
14 | CN(C)C(=O)c1cccc(-c2cccc(-c3nc(C(=O)NC4CCCCC4)cc4c3[C@H](CCO)N([S@@](=O)C(C)(C)C)C4)c2)c1 | inactive: 0.988
15 | COc1ccc(NC(=O)Nc2ccc3c(c2)C(=O)N([C@@H](C)CO)C[C@H](C)[C@H](CN(C)C(=O)C2CCCCC2)OCCCC[C@H](C)O3)cc1 | inactive: 1.01
16 | C[C@@H]1CN([C@H](C)CO)C(=O)c2cc(-c3cccc(C#N)c3)cnc2O[C@H]1CN(C)C(=O)c1cnccn1 | inactive: 0.994
17 | Cc1ccc(S(=O)(=O)N(C)C[C@H]2Oc3ccc(NC(=O)C4CC4)cc3C(=O)N([C@@H](C)CO)C[C@@H]2C)cc1 | inactive: 1
18 | C[C@@H]1CN([C@@H](C)CO)C(=O)c2cc(NC(=O)Nc3ccc(C(F)(F)F)cc3)ccc2O[C@H]1CN(C)Cc1ccc(Oc2ccccc2)cc1 | inactive: 1.02
19 | C[C@@H]1CCCCO[C@@H](CN(C)C(=O)c2ccccc2)[C@H](C)CN([C@H](C)CO)C(=O)c2cc(NS(=O)(=O)c3ccccc3)ccc2O1 | inactive: 1.01

Row | Compound | relative growth
20 | COc1ccc(S(=O)(=O)Nc2cccc3c2O[C@H](CN(C)Cc2ccc(Cl)c(Cl)c2)[C@@H](C)CN([C@@H](C)CO)C3=O)cc1 | inactive: 1.01
21 | COc1ccc(S(=O)(=O)Nc2ccc3c(c2)C(=O)N([C@H](C)CO)C[C@@H](C)[C@H](CN(C)S(=O)(=O)c2ccc(Cl)cc2)OCCCC[C@@H](C)O3)cc1 | inactive: 1.02
22 | CCn1nnc2c1CCN(S(=O)(=O)c1cn(C)cn1)[C@@H]2COC | inactive: 1
23 | C[C@H](CO)N1C[C@H](C)[C@@H](CN(C)Cc2ccc(C(=O)Nc3ccccc3N)cc2)Oc2c(NC(=O)Nc3ccc(C(F)(F)F)cc3)cccc2C1=O | inactive: 0.996
24 | OC1C(O)C(O)C(O)C(O)C1O (configuration not stated) | inactive: 1.1
25 | CN1C[C@]2(CCN(C(=O)c3cn(CCN4CCNCC4)nn3)C2)OC1=O | inactive: 0.973
26 | CC(=O)CC(=O)O | inactive: 1
27 | C[C@@H]1CCCCO[C@H](CN(C)C(=O)Nc2cccc3ccccc23)[C@@H](C)CN([C@H](C)CO)C(=O)c2cc(NC(=O)c3ccccc3)ccc2O1 | inactive: 1.06
28 | CC(C)(C)OC(=O)CC[C@]12N=C(c3ccc(OCCCO)cc3)O[C@H]1c1ccccc1CN(C(=O)c1ccccc1)C2=O | inactive: 1.06
29 | C[C@@H]1CN([C@@H](C)CO)C(=O)Cc2cc(NC(=O)CCN3CCOCC3)ccc2O[C@@H]1CN(C)Cc1ccc2c(c1)OCO2 | inactive: 1.02
30 | C[C@@H]1CCCCO[C@H](CN(C)Cc2ccc(C(F)(F)F)cc2)[C@H](C)CN([C@@H](C)CO)C(=O)c2cc(NC(=O)Nc3ccc4c(c3)OCO4)ccc2O1 | inactive: 0.994
31 | COc1ccc(S(=O)(=O)N(C)C[C@H]2Oc3c(NC(=O)NC(C)C)cccc3C(=O)N([C@H](C)CO)C[C@H]2C)cc1 | inactive: 1.01
32 | C[C@@H]1CCCCO[C@@H](CN(C)CC2CC2)[C@H](C)CN([C@H](C)CO)C(=O)c2cc(NC(=O)Nc3ccc4c(c3)OCO4)ccc2O1 | inactive: 0.992
33 | C[C@@H]1CN([C@H](C)CO)C(=O)c2cccc(NC(=O)c3ccc(-c4nccs4)cc3)c2O[C@@H]1CN(C)Cc1ccc2c(c1)OCO2 | inactive: 1.03
34 | CC(C)NC(=O)Nc1ccc2c(c1)C(=O)N([C@H](C)CO)C[C@H](C)[C@@H](CN(C)Cc1ccc3c(c1)OCO3)O2 | inactive: 1.03
35 | C[C@H](CO)N1C[C@H](C)[C@H](CN(C)Cc2ccc3c(c2)OCO3)Oc2ncc(C#CCN(C)C)cc2C1=O | inactive: 1.02
36 | Cc1cccc(C)c1NC(=O)C1CCCCN1C.Cl (configuration not stated) | inactive: 1.18
37 | C[C@H](CO)N1C[C@H](C)[C@@H](CN(C)C(=O)Nc2ccccc2)OCCCC[C@H](C)Oc2ccc(NC(=O)Nc3cccc4ccccc34)cc2C1=O | inactive: 1.04
